Experimental data from paper PMC5171805, “Engineering the surface properties of a human monoclonal antibody prevents self-association and rapid clearance in vivo” (Scientific Reports, 2016).

Target: human NGF (aa 1-118) (human)
Assay: crystal structure; NGF:scFv complex, 3.4 Å, space group I4, two full complexes per asymmetric unit
Settings: both partners purified

B1: human NGF ([…]) (ligand)
chain: not shown
modifications: non-covalent homodimer. Printed […] counted on the mature protein (offset 121), consistent with the 5JZ7 NGF chain. / non-covalent homodimer. Printed […] counted on the mature protein (offse)
stoichiometry N: 2
